From article PMC7819943, “Rice protein-binding microarrays: a tool to detect cis-acting elements near promoter regions in rice”
The list shows a part of the results.

molecular target: T1, OsWOX13 (Oryza sativa, UniProt Q5QMM3 1-267); test: protein-binding microarray (RPBM); PBS, 2% BSA, 51.3 ng/ul salmon testes DNA, 50 uM zinc acetate, 200 nM TF, 25 C, 1 h; high values mean tight binding; details: protein: recombinant; tags: N-terminal polyhistidine and DsRed monomer fusion (pET32a); label: CyDye5-dUTP incorporated in the synthesized complementary strand; 3' TTTTT single-stranded linker to array surface; dsDNA, one strand shown
T1 sequence: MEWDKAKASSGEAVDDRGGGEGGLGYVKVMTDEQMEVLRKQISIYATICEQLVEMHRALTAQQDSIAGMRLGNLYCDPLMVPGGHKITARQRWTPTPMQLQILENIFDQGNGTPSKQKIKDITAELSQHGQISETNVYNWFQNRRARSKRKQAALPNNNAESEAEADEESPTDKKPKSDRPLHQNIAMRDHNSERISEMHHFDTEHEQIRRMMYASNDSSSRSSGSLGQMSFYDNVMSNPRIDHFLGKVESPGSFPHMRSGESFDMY
In short: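 Binding signal is defined as the fluorescence intensity of each feature in arbitrary units, read on an Axon 4000B scanner. Transcription factors with N-terminal polyhistidine and DsRed fusions came from E. coli BL21-CodonPlus and were purified on Ni–NTA. They were incubated at 200 nM for 1 h at 25 °C on a custom Agilent array that had been made double-stranded with Cy5-dUTP, with 50 µM zinc acetate present, and the array was washed.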

Sequence | binding signal
TGCTTGAAATTGAAAACCTCAATGTCAAATCAGTCTTATTCGGAGTCACCTAGTGCAG | 4900 fluorescence intensity (a.u.)
CTCATGATTCTGATTATAATGGCTAAAACATTAAGCGCGACGGAGTCACCTAGTGCAG | 13500 fluorescence intensity (a.u.)
TGCCATTAACTTTTAAACATATATTTAATCGTGTAAATAACGGAGTCACCTAGTGCAG | 3380 fluorescence intensity (a.u.)
GTTGTATATGTAATTGATGATGCACTGTCTGAACTTCAGACGGAGTCACCTAGTGCAG | 20600 fluorescence intensity (a.u.)
AACAAACCTTACCAATTAAGTTATGTCCATATCTTAATGGCGGAGTCACCTAGTGCAG | 6200 fluorescence intensity (a.u.)
TTGCATCAAATTTAAACACTCATCAAGATTCACGCACTAACGGAGTCACCTAGTGCAG | 3290 fluorescence intensity (a.u.)
TCAAATCAGGGCGCAATTAGGCTTCAAAGATTCGTCACGCCGGAGTCACCTAGTGCAG | 3850 fluorescence intensity (a.u.)
ATTACAAATAGATGGAGCACGTCCCTAGAGAGTAGCAGCTCGGAGTCACCTAGTGCAG | 3170 fluorescence intensity (a.u.)
CTAATTAATTCATCATTAGCAAATGTGTACTGTACCACCACGGAGTCACCTAGTGCAG | 36800 fluorescence intensity (a.u.)
TTAAATTGCAAAATTGAACATTTAACTCAATTGTGTATTTCGGAGTCACCTAGTGCAG | 31700 fluorescence intensity (a.u.)
TGCAATTTTCAATCATACTATTTCTGATAAAGTTGTCAAACGGAGTCACCTAGTGCAG | 20900 fluorescence intensity (a.u.)
TAGATTACTTCATTAATTGGCACGGCTTGTGATCAAACAACGGAGTCACCTAGTGCAG | 13700 fluorescence intensity (a.u.)
AATAATGAATTTAAAATAAAATAAAACTGCATGCAAGCGACGGAGTCACCTAGTGCAG | 5650 fluorescence intensity (a.u.)
TGCAAATTGCGTAAGATTATATTAGTCAAAGGGCACTGTGCGGAGTCACCTAGTGCAG | 22400 fluorescence intensity (a.u.)
ACACAAATTCAATTAGATAACTAATTTCAGACTCTGTCAACGGAGTCACCTAGTGCAG | 27100 fluorescence intensity (a.u.)
ACTCAGTTTAAATGGCATTTTACCACAATCTGTGTCCATGCGGAGTCACCTAGTGCAG | 4100 fluorescence intensity (a.u.)
GCAGCCGCAGCCAATCAGCTACGCAGACAGCAAGCAACAGCGGAGTCACCTAGTGCAG | 8080 fluorescence intensity (a.u.)
AGTTGACACTTGACAGCGACAAATTGCTGAGACGCGATTACGGAGTCACCTAGTGCAG | 9260 fluorescence intensity (a.u.)
TTGTGATAATGAAGACACTAAACCTATAGTTTTGTGATAACGGAGTCACCTAGTGCAG | 13200 fluorescence intensity (a.u.)
GGGGACTATTCAAATTGATGTTATTTTCAACCATATTATTCGGAGTCACCTAGTGCAG | 7030 fluorescence intensity (a.u.)
TTTAATTAAATACTACTTCCTCCGTATTTTAATGTATGACCGGAGTCACCTAGTGCAG | 24900 fluorescence intensity (a.u.)

Sequence | binding signal
GAAATTTGAATAAGATGTGATTAATGGGATAAGTAGTACTCGGAGTCACCTAGTGCAG | 7210 fluorescence intensity (a.u.)
TGCTTATCTAAATTGTAACATATTATTTTGAGTTGGTGACCGGAGTCACCTAGTGCAG | 3590 fluorescence intensity (a.u.)
CACTGCTAGATCTTGTTCAATCATTGGAATCTAATATTTTCGGAGTCACCTAGTGCAG | 3810 fluorescence intensity (a.u.)
CCGTGACAAGTGACTCAAATATGTTTCTTTTATTCCATTTCGGAGTCACCTAGTGCAG | 3560 fluorescence intensity (a.u.)
TGTTAACTGTCGATGATGATGAGTTCTGGGAAGGAGTTTTCGGAGTCACCTAGTGCAG | 15400 fluorescence intensity (a.u.)
ATAGTTAAATTGCCCCTCACAACACCACCTGTCGCTGATTCGGAGTCACCTAGTGCAG | 6860 fluorescence intensity (a.u.)
GGCTAATTAAGGAGATGCTAAATATAGGTTAAATCAAGGACGGAGTCACCTAGTGCAG | 25100 fluorescence intensity (a.u.)
TTCATAACCAATCAACCATAATGTTATTCGGATCCCTAGACGGAGTCACCTAGTGCAG | 16800 fluorescence intensity (a.u.)
TATAATTAAGATGACACTAACCATGGTTAACTAACCCAACCGGAGTCACCTAGTGCAG | 20900 fluorescence intensity (a.u.)
GTAGATAATTAAATCGGATTAGCATTAGATAATCAAGCAACGGAGTCACCTAGTGCAG | 37000 fluorescence intensity (a.u.)
CTAAAAGTAATTAAGACATATCATAAAAGTAATTTGTGATCGGAGTCACCTAGTGCAG | 9010 fluorescence intensity (a.u.)
GTTAGTGATTGAACCATAGACTTTACAACTTCCTAAGATCCGGAGTCACCTAGTGCAG | 30700 fluorescence intensity (a.u.)
TTCATAATTAGCACATGTTTACTGTGGTATCACATGGACTCGGAGTCACCTAGTGCAG | 25200 fluorescence intensity (a.u.)
CCTTAATTTATCTTAGCTACTAGCGATACTTTAATCCCTACGGAGTCACCTAGTGCAG | 40500 fluorescence intensity (a.u.)
ATCTACACGACCTTTCTGATTGAGGAGACAAAAGTTTTCACGGAGTCACCTAGTGCAG | 7810 fluorescence intensity (a.u.)
GAAAAGTCAATAATCTAGATTGACCTCGTCGTCTTGGGCCCGGAGTCACCTAGTGCAG | 15300 fluorescence intensity (a.u.)
TCGTAATATTATGATGCATTGACATCAAGTAATAGGTTAGCGGAGTCACCTAGTGCAG | 3750 fluorescence intensity (a.u.)
CCCAATCACTCCCGCACATCACTGACACGTGGGCCCCACGCGGAGTCACCTAGTGCAG | 7230 fluorescence intensity (a.u.)
TTTATTGACAAAATTTGCTACAGAAAATCCAGATTTTGTGCGGAGTCACCTAGTGCAG | 24800 fluorescence intensity (a.u.)
TTTTGTAATTACCACAACACCCAGAAGTCTAAACAGATAGCGGAGTCACCTAGTGCAG | 13400 fluorescence intensity (a.u.)
CCACTGCCTCACCTCCTCTTTCCCCTCTTCCTGATCCAAACGGAGTCACCTAGTGCAG | 3210 fluorescence intensity (a.u.)

Sequence | binding signal
ACCTTAATTGGAAGATTCCAATCGAATGATCAAACTCGTTCGGAGTCACCTAGTGCAG | 41700 fluorescence intensity (a.u.)
GAGTAATTGACTAGAGTACGAGGAGTCAAGAGAATATCACCGGAGTCACCTAGTGCAG | 26900 fluorescence intensity (a.u.)
ATAACAAATTGCAGCTTTAACATTTGCGTATCGTAGTACTCGGAGTCACCTAGTGCAG | 10300 fluorescence intensity (a.u.)
GCGATCCAGATTACAATTACTAACTTGTGTCCTAATTAATCGGAGTCACCTAGTGCAG | 3310 fluorescence intensity (a.u.)
TTTGATGGGAATTTGTTTCAGATATGCTTACGTGCACATACGGAGTCACCTAGTGCAG | 13800 fluorescence intensity (a.u.)
AAGGAGAATTTTCTTGATTGAAATTATACATCATATTCATCGGAGTCACCTAGTGCAG | 29500 fluorescence intensity (a.u.)
TAAATTGCCAACCATCATTTTCCAATTGGCCAACTGATGGCGGAGTCACCTAGTGCAG | 5780 fluorescence intensity (a.u.)
AAATTTTAAATTTTAGTAAAATTTGTTCGGTCTTTCTCTCCGGAGTCACCTAGTGCAG | 5920 fluorescence intensity (a.u.)
GCATGTGATTACAATTTCGTGTTCATATCAATAATAGTAGCGGAGTCACCTAGTGCAG | 25400 fluorescence intensity (a.u.)
CCTTCATTCATTTCCTAATCCCAATCCCACCCTCCATTTCCGGAGTCACCTAGTGCAG | 3570 fluorescence intensity (a.u.)
ATTAAACTCCATTCTAAAACTAGAATATAATTAGACAGAGCGGAGTCACCTAGTGCAG | 3290 fluorescence intensity (a.u.)
CGGTTAGACAGAGCCTAATTAAGGAGGTCACTTGTTATACCGGAGTCACCTAGTGCAG | 12700 fluorescence intensity (a.u.)
TTGAAATTAAATTAATTAGCACAAATTATGAAATTAACTACGGAGTCACCTAGTGCAG | 45800 fluorescence intensity (a.u.)
TTAAATTAAAACTTTTAGCTGAACCAATGGCTACTGAGAACGGAGTCACCTAGTGCAG | 3170 fluorescence intensity (a.u.)
ATTTTGTTGATTGCTGCAATCTCGTGCGGCGTAACAAGGTCGGAGTCACCTAGTGCAG | 37300 fluorescence intensity (a.u.)
GGCACTAAATTAGTTTCATTAAATTTAACACTGAATATATCGGAGTCACCTAGTGCAG | 24800 fluorescence intensity (a.u.)
TCAAATTTGTGCTGATTTATATGGAAAATTCTGTCAAGTGCGGAGTCACCTAGTGCAG | 37600 fluorescence intensity (a.u.)
TGCTGATTTTCTGATGGACTCACGAAGTCGCACACGTACGCGGAGTCACCTAGTGCAG | 32600 fluorescence intensity (a.u.)
ATGGCATGATTAATAATGGCTGTAGTGATAAACCGCATGGCGGAGTCACCTAGTGCAG | 11600 fluorescence intensity (a.u.)
TGGCAGAATTTTAAACGATTGATAAATCTTCTTCTAAGCTCGGAGTCACCTAGTGCAG | 4910 fluorescence intensity (a.u.)
TTCTTGCCACGATAATTGAATGGAACTTCCACATTCAGATCGGAGTCACCTAGTGCAG | 20000 fluorescence intensity (a.u.)

Sequence | binding signal
ATAATAAATATATTTACATTTAGACCCTCGATGTGTCATCCGGAGTCACCTAGTGCAG | 3230 fluorescence intensity (a.u.)
AACCAAACCAATCACGAGCGGATCAACACAGATCAAGCATCGGAGTCACCTAGTGCAG | 12500 fluorescence intensity (a.u.)
AGTTCTTGATGATCAAATTTTGCTGGGTTGTTTAACCACTCGGAGTCACCTAGTGCAG | 7260 fluorescence intensity (a.u.)
AATTACGCCATGATTTGATAATGTGATGCTATAGTAAACACGGAGTCACCTAGTGCAG | 7330 fluorescence intensity (a.u.)
GGAAAATTGCAACCAAATCATCCTAATGCGTCATATTTTCCGGAGTCACCTAGTGCAG | 3420 fluorescence intensity (a.u.)
TGTGCTAATCACAAATAATTATCACCTACTCCTAGCTCTGCGGAGTCACCTAGTGCAG | 24400 fluorescence intensity (a.u.)
ATTGATAGATAGATAGATTTATGCAGCTCAAGTTTACACACGGAGTCACCTAGTGCAG | 47600 fluorescence intensity (a.u.)
CTTGACTAGCTGACTGTTCTTACAAGTGACATCAGTCGAGCGGAGTCACCTAGTGCAG | 7850 fluorescence intensity (a.u.)
AAAATTTAAATTTTCAGGCTTAAATTTGAAATTGATTTTACGGAGTCACCTAGTGCAG | 7780 fluorescence intensity (a.u.)
CAATGACTGATTACTGTGTTGATAGAATTTCATATACATTCGGAGTCACCTAGTGCAG | 34300 fluorescence intensity (a.u.)
TGGCTGCTGATTGCAACAGTGGTACTGACATTAGCAGCAGCGGAGTCACCTAGTGCAG | 16300 fluorescence intensity (a.u.)
ATTTAAACTACCTTTTCATTGACACATGCACTCTCACCGACGGAGTCACCTAGTGCAG | 3190 fluorescence intensity (a.u.)
ATATAATTTGCTTTAAAGTGAATATGTTATCACCGCAGATCGGAGTCACCTAGTGCAG | 23700 fluorescence intensity (a.u.)
AGACAAGGTAATTACCTTCCAGATAAACATTTAGAAAGAACGGAGTCACCTAGTGCAG | 5950 fluorescence intensity (a.u.)
AAGATAAATGACATACATACCCCTAATAATGCACTAGGATCGGAGTCACCTAGTGCAG | 9380 fluorescence intensity (a.u.)
CCTCCGAATTGATATTTTGTTTTGAGAGATCTTGTTTACTCGGAGTCACCTAGTGCAG | 6130 fluorescence intensity (a.u.)
ATTAATTAGCCTCCCACAACTCCTTAATTCCATCTCCTCTCGGAGTCACCTAGTGCAG | 3510 fluorescence intensity (a.u.)
TGCCACACAAATTTTGCAAAATTTGTGATATGCCACCTGACGGAGTCACCTAGTGCAG | 6080 fluorescence intensity (a.u.)
TTTCAATCCAAATCATTTTATTATTTCTACGCTATCTAATCGGAGTCACCTAGTGCAG | 5440 fluorescence intensity (a.u.)
ACGAGATAACTATTTAACAAATTTGAAGTAAAATCATATTCGGAGTCACCTAGTGCAG | 4870 fluorescence intensity (a.u.)
ATGGATTAATTAGGCTCAAAAGATTTGTCTCACTATTTCCCGGAGTCACCTAGTGCAG | 13500 fluorescence intensity (a.u.)
